The text below walks through data of a melting point compilation (Tetko et al.; mined from patent text by program, amines drawn as free bases though some values may be those of a salt).

Molecules are shown by their SMILES.

`C=CCn1nc2c(F)cccc2c1-c1ccc(O)cc1O` displayed a melting point of 69 to 70 °C.

With `CCCCCCc1nc2cnc3ccccc3c2n1CCCCN`, the melting point lay within 171 to 172 °C.

In the case of `CC(=O)CCCCn1c(=O)c2c(ncn2Cc2ccccc2)n(C)c1=O`, the melting point lay within 82 to 84 °C.

As a reminder, the melting point is the temperature of the solid-liquid transition.
